What all share (experiment): universal protein binding microarray (PBM)
Holding throughout (conditions): transcription factors of Arabidopsis thaliana; high values mean tight binding; most listed sequences are background and not binding sites; double strand, one strand shown

In experiment [1] the target is T1, GST-ANAC092(1-176) (UniProt Q9FKA0).
T1 sequence: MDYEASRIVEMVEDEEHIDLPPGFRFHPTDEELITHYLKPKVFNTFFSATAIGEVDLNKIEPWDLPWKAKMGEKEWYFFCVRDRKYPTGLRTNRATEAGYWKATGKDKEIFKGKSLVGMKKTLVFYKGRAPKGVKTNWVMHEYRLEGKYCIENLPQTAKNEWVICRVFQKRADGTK

The target in experiment [2] is T2, GST-ATAF1 NAC domain (UniProt Q39013).
T2 sequence: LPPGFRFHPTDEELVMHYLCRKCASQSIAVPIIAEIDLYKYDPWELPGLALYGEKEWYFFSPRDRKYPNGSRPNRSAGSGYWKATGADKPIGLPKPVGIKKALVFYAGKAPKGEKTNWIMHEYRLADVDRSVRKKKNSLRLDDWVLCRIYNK

Experiment [3] deals with T3, GST-ANAC092(1-285) full length (UniProt Q9FKA0).
T3 sequence: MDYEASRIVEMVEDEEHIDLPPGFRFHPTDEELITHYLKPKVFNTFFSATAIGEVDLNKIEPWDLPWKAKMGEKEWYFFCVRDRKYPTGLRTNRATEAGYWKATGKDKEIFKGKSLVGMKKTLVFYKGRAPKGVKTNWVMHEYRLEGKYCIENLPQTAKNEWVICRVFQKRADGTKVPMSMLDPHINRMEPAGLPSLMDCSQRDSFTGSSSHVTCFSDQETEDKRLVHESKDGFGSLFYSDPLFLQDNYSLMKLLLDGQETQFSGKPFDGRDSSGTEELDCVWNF

Experiment [4] has as its target T4, GST-NST2(1-184) (UniProt Q9M274).
T4 sequence: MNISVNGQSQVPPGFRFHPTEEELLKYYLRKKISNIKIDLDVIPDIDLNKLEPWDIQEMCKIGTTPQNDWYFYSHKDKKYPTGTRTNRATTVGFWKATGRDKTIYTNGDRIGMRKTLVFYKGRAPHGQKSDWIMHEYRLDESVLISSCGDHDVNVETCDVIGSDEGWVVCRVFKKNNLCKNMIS

In experiment [5] the target is T5, GST-NTL8 NAC domain (UniProt Q9XIN7).
T5 sequence: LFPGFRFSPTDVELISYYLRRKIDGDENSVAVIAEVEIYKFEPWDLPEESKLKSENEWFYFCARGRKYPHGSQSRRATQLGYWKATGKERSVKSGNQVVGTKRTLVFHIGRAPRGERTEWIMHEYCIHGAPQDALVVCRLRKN

For experiment [6], the target named is T6, GST-SND1(1-203) (UniProt Q9LPI7).
T6 sequence: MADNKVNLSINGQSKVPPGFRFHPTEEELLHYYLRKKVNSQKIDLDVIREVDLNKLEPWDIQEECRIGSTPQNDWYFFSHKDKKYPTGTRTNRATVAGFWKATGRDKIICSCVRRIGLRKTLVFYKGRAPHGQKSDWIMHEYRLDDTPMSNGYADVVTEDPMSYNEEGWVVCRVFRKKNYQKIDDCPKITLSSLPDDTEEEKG

Experiment [7] addresses T7, GST-VND3 NAC domain (UniProt Q9FH59).
T7 sequence: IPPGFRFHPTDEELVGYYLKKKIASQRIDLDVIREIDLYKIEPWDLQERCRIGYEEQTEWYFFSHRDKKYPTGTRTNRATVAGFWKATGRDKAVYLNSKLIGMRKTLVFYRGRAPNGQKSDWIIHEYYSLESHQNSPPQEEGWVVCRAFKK

Experiment [8] deals with T8, GST-VND7 NAC domain (UniProt Q9C8W9).
T8 sequence: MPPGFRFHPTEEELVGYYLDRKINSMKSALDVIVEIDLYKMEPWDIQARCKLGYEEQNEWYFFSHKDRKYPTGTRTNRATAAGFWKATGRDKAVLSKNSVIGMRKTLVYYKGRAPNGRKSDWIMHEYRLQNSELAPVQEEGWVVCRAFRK

Experiment [9] addresses T9, GST-VOZ2 (Arabidopsis thaliana) (UniProt Q9SLB9).
T9 sequence: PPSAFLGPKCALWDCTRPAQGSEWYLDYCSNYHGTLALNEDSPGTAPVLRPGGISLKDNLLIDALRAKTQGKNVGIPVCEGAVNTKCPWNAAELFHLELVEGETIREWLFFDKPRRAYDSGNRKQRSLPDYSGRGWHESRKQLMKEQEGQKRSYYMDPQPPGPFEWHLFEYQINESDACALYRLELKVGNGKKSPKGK

Experiment [10] concerns the target GST-NTL6(1-168) (UniProt Q9SCK6).
For experiment [11], the target named is T10, GST-ANAC055(1-171) (UniProt Q9LDY8).
T10 sequence: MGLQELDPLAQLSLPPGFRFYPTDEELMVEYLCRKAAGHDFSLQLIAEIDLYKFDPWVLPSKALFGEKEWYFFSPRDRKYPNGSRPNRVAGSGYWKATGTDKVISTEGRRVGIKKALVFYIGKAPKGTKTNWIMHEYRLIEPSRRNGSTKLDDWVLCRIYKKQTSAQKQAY

The target in experiment [12] is T11, GST-NAP(1-166) (UniProt O49255).
T11 sequence: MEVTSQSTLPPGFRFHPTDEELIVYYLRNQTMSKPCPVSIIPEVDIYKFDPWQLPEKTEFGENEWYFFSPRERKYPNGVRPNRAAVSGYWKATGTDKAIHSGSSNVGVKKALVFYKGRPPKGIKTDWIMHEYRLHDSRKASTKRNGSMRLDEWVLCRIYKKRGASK

Experiment [13] addresses T12, GST-ANAC019 NAC domain (UniProt Q9C932).
T12 sequence: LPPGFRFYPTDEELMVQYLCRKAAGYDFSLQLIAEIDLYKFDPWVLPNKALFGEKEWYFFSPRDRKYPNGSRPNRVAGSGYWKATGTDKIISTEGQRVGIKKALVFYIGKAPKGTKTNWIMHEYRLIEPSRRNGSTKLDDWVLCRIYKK

This is a selection; strong and weak results do not stand in their true shares. For part of these data: At the low end of the ranking the order means little. The list shows a part of the results. For part of these data: The source does not settle which construct or isoform was used.

With GCGAAGAC, the binding signal in experiment [1] is 0.0257 E-score; in experiment [2] it was -0.0191 E-score; in experiment [3], -0.00826 E-score; in experiment [4] it was -0.103 E-score; in [5] it was 0.109 E-score; in experiment [6], -0.0256 E-score. The binding signal in [7] was -0.00336 E-score; in experiment [8], 0.0384 E-score; in experiment [9] it was -0.0652 E-score.
As for GAAAAGTC, the binding signal in [1] was 0.00391 E-score; in experiment [10], -0.00967 E-score; in experiment [11], 0.0314 E-score; in experiment [3], -0.05 E-score; in experiment [12], 0.145 E-score; in experiment [6], 0.011 E-score. In addition, the binding signal was -0.0111 E-score in [7], -0.0441 E-score in experiment [8] and -0.0164 E-score in [9].
For the sequence CATTTGAC, the binding signal is 0.0363 E-score in [1]; 0.0255 E-score in experiment [10]; -0.0424 E-score in experiment [13]; 0.00911 E-score in experiment [3]; -0.00754 E-score in experiment [12]; -0.0646 E-score in experiment [5]. Also, the binding signal in [6] is 0.0315 E-score; in experiment [7], 0.105 E-score; in experiment [8], 0.0331 E-score; in [9], 0.11 E-score.
For the sequence GTCAAAGA, the binding signal in [1] was 0.0277 E-score; in [10], -0.00103 E-score; in [13], 0.0365 E-score; in experiment [2] it was 0.0309 E-score; in [12] it was -0.0603 E-score; in [5], 0.00195 E-score. Besides, the binding signal in experiment [6] stood at 0.167 E-score; in experiment [7], 0.0371 E-score; in experiment [8] it was 0.00674 E-score; in experiment [9], 0.0504 E-score.
With ACTTGACC, the binding signal was 0.0892 E-score in experiment [1]; 0.028 E-score in experiment [10]; 0.0306 E-score in experiment [11]; 0.0108 E-score in experiment [2]; -0.105 E-score in experiment [12]; 0.11 E-score in experiment [4]. For the same sequence, the binding signal is 0.0948 E-score in experiment [5]; 0.0398 E-score in experiment [6]; 0.0371 E-score in experiment [7]; -0.0669 E-score in experiment [8]; 0.0516 E-score in [9].
With GAAGGTCA, the binding signal in [1] is -0.0252 E-score; in experiment [13] it was -0.0397 E-score; in [11], 0.00707 E-score; in experiment [2], 0.0285 E-score; in experiment [3], -0.0592 E-score; in experiment [12] it was -0.123 E-score. Moreover, the binding signal in [4] was -0.0121 E-score; in experiment [5] it was 0.0878 E-score; in experiment [6] it was -0.08 E-score; in [7], 0.0489 E-score; in [8] it was -0.143 E-score; in experiment [9], -0.0834 E-score.
Regarding TATGGTCA, the binding signal in [1] is -0.189 E-score; in experiment [10], -0.0519 E-score; in experiment [13], -0.105 E-score; in [2], -0.0664 E-score; in [3] it was 0.0396 E-score; in experiment [12], 0.0222 E-score. For the same sequence, the binding signal in experiment [4] was -0.0876 E-score; in experiment [5] it was -0.15 E-score; in experiment [6] it was -0.0139 E-score; in [7], 0.0521 E-score; in experiment [8] it was -0.146 E-score; in experiment [9] it was -0.0673 E-score.
Consider GTTGACGA, for which the binding signal in [1] was -0.16 E-score; in experiment [10], -0.0906 E-score; in [13], -0.029 E-score; in experiment [11], 0.0147 E-score; in experiment [3], -0.18 E-score; in experiment [12] it was -0.123 E-score. Also, the binding signal was 0.0307 E-score in experiment [4]; -0.2 E-score in [5]; -0.0807 E-score in experiment [6]; -0.0601 E-score in experiment [7]; -0.0528 E-score in experiment [8]; 0.0677 E-score in experiment [9].
As for GCGTGGAC, the binding signal in experiment [10] is -0.0922 E-score; in [13], 0.0892 E-score; in experiment [11], -0.176 E-score; in experiment [2], -0.0188 E-score; in experiment [3], 0.19 E-score; in [12], -0.00034 E-score. The binding signal in experiment [4] is -0.0511 E-score; in experiment [5], -0.0292 E-score; in [6], 0.00453 E-score; in experiment [7], -0.087 E-score; in [8], 0.0211 E-score; in experiment [9], 0.0297 E-score.
CGTCAACC: the binding signal in experiment [10] is -0.115 E-score; in experiment [13], -0.0277 E-score; in experiment [11] it was -0.116 E-score; in experiment [2], -0.0644 E-score; in experiment [12] it was -0.0642 E-score; in experiment [4], -0.00826 E-score. The binding signal in [5] was -0.105 E-score; in [6] it was 0.0331 E-score; in experiment [7], -0.18 E-score; in experiment [8] it was -0.122 E-score; in [9], 0.0181 E-score.
AAGTCAGC: the binding signal in experiment [1] is -0.0826 E-score; in experiment [13], -0.111 E-score; in experiment [11] it was -0.124 E-score; in experiment [2] it was -0.168 E-score; in experiment [3] it was -0.0909 E-score; in experiment [12] it was -0.0636 E-score. The binding signal in [4] was -0.0184 E-score; in experiment [5], 0.00726 E-score; in experiment [6] it was -0.0905 E-score; in [7] it was -0.101 E-score; in experiment [8] it was -0.126 E-score; in experiment [9] it was -0.171 E-score.
AGGTCAAT: the binding signal in [1] was 0.0119 E-score; in experiment [10] it was 0.137 E-score; in [13], -0.0133 E-score; in experiment [2], -0.014 E-score; in [3], 0.0283 E-score; in experiment [12] it was 0.0221 E-score. Moreover, the binding signal in [4] is 0.0163 E-score; in experiment [5], -0.0486 E-score; in [6], 0.0275 E-score; in experiment [7], 0.0493 E-score; in [8], 0.0357 E-score; in experiment [9], 0.102 E-score.
In the case of TGACCAAA, the binding signal in experiment [10] is -0.00509 E-score; in experiment [13] it was -0.0668 E-score; in [11] it was 0.0104 E-score; in experiment [2], 0.0216 E-score; in experiment [3], 0.126 E-score; in experiment [12], -0.077 E-score. Further, the binding signal was -0.0424 E-score in [4]; 0.038 E-score in experiment [5]; 0.0442 E-score in [6]; 0.0456 E-score in [7]; -0.0165 E-score in experiment [8]; 0.113 E-score in experiment [9].

These data come from article PMC4081100.
